Results on 51 compounds are retold here after PMC6919601, “Identification of Plasmodium dipeptidyl aminopeptidase allosteric inhibitors by high throughput screening” (PLoS ONE, 2019).

SMILES strings stand for the structures. About 230 (0.21%) of roughly 110,000 compounds showed an effect of 50% or more. Some of the results follow.
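Note: 30 min substrate incubation versus DMSO and 10 µM JCP410 controls.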

This assay deals with DPAP1 (Plasmodium falciparum, UniProt Q8IIJ9). Nature of the assay: primary screen, percent inhibition; read by cleavage of a fluorogenic dipeptide substrate; higher = more effect of the substance. Also on record: species or system P. falciparum D10 trophozoite lysates; single well.
Sequence of DPAP1 (Q8IIJ9 whole entry, looked up): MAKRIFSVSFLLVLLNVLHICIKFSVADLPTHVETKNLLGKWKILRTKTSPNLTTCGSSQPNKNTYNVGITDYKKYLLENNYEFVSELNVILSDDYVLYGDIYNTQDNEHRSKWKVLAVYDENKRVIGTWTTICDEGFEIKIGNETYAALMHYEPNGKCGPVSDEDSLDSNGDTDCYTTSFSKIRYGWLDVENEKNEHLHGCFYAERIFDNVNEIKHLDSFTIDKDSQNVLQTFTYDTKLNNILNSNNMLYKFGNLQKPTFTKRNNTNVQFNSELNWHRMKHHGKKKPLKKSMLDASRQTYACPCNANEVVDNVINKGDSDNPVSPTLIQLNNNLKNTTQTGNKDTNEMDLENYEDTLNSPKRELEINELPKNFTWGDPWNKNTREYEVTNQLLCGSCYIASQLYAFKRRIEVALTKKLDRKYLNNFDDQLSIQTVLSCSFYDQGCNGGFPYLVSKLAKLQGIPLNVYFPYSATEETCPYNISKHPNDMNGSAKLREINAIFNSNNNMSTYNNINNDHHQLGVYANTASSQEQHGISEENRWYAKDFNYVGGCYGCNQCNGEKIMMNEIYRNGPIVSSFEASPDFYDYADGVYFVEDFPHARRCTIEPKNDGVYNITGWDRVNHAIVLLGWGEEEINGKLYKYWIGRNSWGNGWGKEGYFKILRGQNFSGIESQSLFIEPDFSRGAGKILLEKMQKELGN
Regarding `CCN(CC)c1ccc(NC(=O)c2cccnc2Cl)cc1`, the “% Inhibition @ 10 uM” value was found to be 2.06%.

Take `CC(C(=O)NCc1ccco1)n1sc2ccccc2c1=O` (stereo not drawn): the “% Inhibition @ 10 uM” value is given as -1.49%.

As for `COc1ccc(CCNC(=O)CSc2nnc(-c3sc4ccccc4c3Cl)o2)cc1OC`, the “% Inhibition @ 10 uM” value was 1.31%.

On to `Cc1ccccc1OC(C)C(=O)Nc1ccc(Cl)cc1` (stereo not drawn), for which the “% Inhibition @ 10 uM” value was 0.795%.

`CCOc1ccc(S(=O)(=O)Nc2ccccc2C(=O)NC(C)CC)cc1` (stereo not drawn): the “% Inhibition @ 10 uM” value was -1.02%.

Consider `CC(CCN1CCN(C=O)CC1)c1ccccc1` (stereo not drawn), for which the “% Inhibition @ 10 uM” value is listed as 1.9%.

Turning to `NS(=O)(=O)c1cc([N+](=O)[O-])c(O)c2ccccc12`, the “% Inhibition @ 10 uM” value was -4.35%.

Regarding `O=C(CN1C(=O)S/C(=C/c2cccnc2)C1=O)N1CCOCC1`, the “% Inhibition @ 10 uM” value is 3.99%.

Turning to `CCc1ccc(Cc2cnc(NC(=O)C3Cc4ccc(C)cc4C(=O)O3)s2)cc1` (stereo not drawn), the “% Inhibition @ 10 uM” value came to 3.54%.

On to `O=C(Cn1ncn2c(cc3ccccc32)c1=O)NCCc1ccc(Cl)cc1`, for which the “% Inhibition @ 10 uM” value amounted to 3.29%.

With `COc1cccc(C(=O)N2CCN(C(=O)c3ccc(F)cc3)CC2)c1`, the “% Inhibition @ 10 uM” value was determined as 1.01%.

`CC1(C)CC(=O)C(C(c2cc3c(cc2Br)OCO3)C2C(=O)CC(C)(C)CC2=O)C(=O)C1`: the “% Inhibition @ 10 uM” value is 1.4%.

With `O=C(CN1C(=O)CSc2ncccc21)NCCCc1ccccc1`, the “% Inhibition @ 10 uM” value amounted to 1.03%.

On to `CSc1nc(Oc2cc(C)cc(C)c2)cc(-n2nc(C)c(C#N)c2N)n1`, for which the “% Inhibition @ 10 uM” value amounted to 0.674%.

With `CCN(CC)C(=O)c1ccc(/N=C/c2c(C)nn(-c3ccc(C)cc3)c2O)cc1`, the “% Inhibition @ 10 uM” value is 2.69%.

For the compound `O=C1OC(c2ccc(-c3ccccc3)cc2)=N/C1=C\c1cccs1`, the “% Inhibition @ 10 uM” value is on record as -1.33%.

For `Cc1ccccc1-n1nnc(-c2nc(-c3ccccc3)no2)c1N`, the “% Inhibition @ 10 uM” value was determined as 0.868%.

For the compound `CS(=O)(=O)N(CC(=O)NC1CCCCCC1)c1cccc(F)c1`, the “% Inhibition @ 10 uM” value is recorded as 4.06%.

Turning to `COc1ccccc1-n1nc(C)cc1N`, the “% Inhibition @ 10 uM” value is on record as 2.57%.

Turning to `COc1ccc(-c2noc(CNC(=O)Cc3ccc(-c4ccccc4)cc3)n2)cc1`, the “% Inhibition @ 10 uM” value is 0.486%.

For `Cc1ccc(OCC(=O)Nc2nonc2NC(=O)COc2ccc(C)cc2C)c(C)c1`, the “% Inhibition @ 10 uM” value is reported as -1.11%.

Regarding `COc1ccc(C2=NOC(C(=O)NC(C)(C)C)C2)cc1` (stereo not drawn), the “% Inhibition @ 10 uM” value is reported as -1.7%.

`O=S(=O)(NCCc1c[nH]c2ccccc12)c1ccc(S(=O)(=O)N2CCOCC2)cc1`: the “% Inhibition @ 10 uM” value came out at 0.503%.

Turning to `COc1cc(NC(=O)c2ccc(N(C)C)cc2)c(OC)cc1NC(=O)c1ccc(N(C)C)cc1`, the “% Inhibition @ 10 uM” value came out at 1.15%.

For `Cc1ccc(OCC(=O)Nc2cccc(Cl)c2C)cc1`, the “% Inhibition @ 10 uM” value is recorded as -3.52%.

Regarding `Cn1cnc2c1c(=O)n(CCn1c(=O)c3c(ncn3C)n(C)c1=O)c(=O)n2C`, the “% Inhibition @ 10 uM” value is reported as 3.54%.

With `O=C(NCCCN1CCCC1=O)C1CCN(C(=O)c2cnn(-c3ccccc3)c2-n2cccc2)CC1`, the “% Inhibition @ 10 uM” value is 3.4%.

As to `CC(=O)Nc1ccc(NC(=O)CN(c2cccc(C(F)(F)F)c2)S(=O)(=O)c2ccccc2)cc1`, the “% Inhibition @ 10 uM” value was determined as 12.7%.

For the compound `COC(=O)c1cc2ccsc2n1Cc1cccc(OC)c1`, the “% Inhibition @ 10 uM” value is on record as -6.24%.

On to `O=C1c2ccccc2C(=O)N1c1cc(Cl)cc(Cl)c1`, for which the “% Inhibition @ 10 uM” value is given as -4.08%.

Take `Cc1onc(-c2ccccc2)c1C(=O)Nc1cc(Cl)cc(Cl)c1`: the “% Inhibition @ 10 uM” value was -3.97%.

`COCCNC(=O)c1noc2c1COc1ccccc1-2`: the “% Inhibition @ 10 uM” value stood at 60%.

As for `COc1ccc(NC(=O)CCCCCN2C(=O)c3ccccc3C2=O)c2ccccc12`, the “% Inhibition @ 10 uM” value is reported as -4.33%.

With `Cc1cc(NC(=O)CC(CN(C)S(=O)(=O)c2ccc(Br)cc2)c2ccccc2)no1` (stereo not drawn), the “% Inhibition @ 10 uM” value is -0.834%.

Regarding `CC1(O)CCCCC1(C)S(=O)(=O)c1ccccc1` (stereo not drawn), the “% Inhibition @ 10 uM” value is 7%.

Take `Cc1ccc(Cl)cc1-n1c(C)cc(/C=C2/C(=N)N3C(=NC2=O)SN=C3S(C)(=O)=O)c1C`: the “% Inhibition @ 10 uM” value was 1.85%.

For `Cc1ccc(-c2cc(C(F)F)n3ncc(C(=O)n4c(C)nc5ccccc54)c3n2)cc1`, the “% Inhibition @ 10 uM” value amounted to 50%.

Turning to `O=C(c1ccc(Br)o1)N1CCCCCC1`, the “% Inhibition @ 10 uM” value came to 0.986%.

Take `CC(C)(C)c1ccc(OCCCCN2CCCC2)cc1`: the “% Inhibition @ 10 uM” value is recorded as -5.84%.

Regarding `O=C(O)c1ccc(CN2CCSCC2)cc1`, the “% Inhibition @ 10 uM” value is 4.04%.

In the case of `CC1CCCCN1CCCNC(=O)c1cc2c(s1)-c1ccccc1SC2` (stereo not drawn), the “% Inhibition @ 10 uM” value was -2.16%.

On to `CCOc1ccc(NC(=O)CCCc2ccc(OC)cc2)cc1`, for which the “% Inhibition @ 10 uM” value is on record as 2.36%.

With `CNC(=S)NCCc1c[nH]c2ccc(OC)cc12`, the “% Inhibition @ 10 uM” value came out at 4.55%.

Turning to `O=C(Nc1ccc(Cl)cc1)N1CC=CCC1`, the “% Inhibition @ 10 uM” value worked out at 1.29%.

As for `CCc1ccccc1NC(=O)CN(c1ccccc1OC)S(=O)(=O)c1ccccc1`, the “% Inhibition @ 10 uM” value is listed as -3.78%.

As for `CC1CCCCC1NC(=O)CCn1nc(-c2ccccc2)ccc1=O` (stereo not drawn), the “% Inhibition @ 10 uM” value is listed as -1.79%.

Take `CCOc1ccccc1CNC(=O)CCCN1C(=O)CSc2ncccc21`: the “% Inhibition @ 10 uM” value is given as -1.6%.

Take `NCCC12CC3CC(C1)CC(C(=O)O)(C3)C2`: the “% Inhibition @ 10 uM” value is on record as -0.807%.

With `O=C(c1cnn2c1NC(c1ccc(Br)cc1)CC2C(F)(F)F)N1CCN2CCCC2C1` (stereo not drawn), the “% Inhibition @ 10 uM” value came out at 0.76%.

As for `CSc1nc(O)c2c(n1)N=C1CCCC(O)=C1C2c1cccs1` (stereo not drawn), the “% Inhibition @ 10 uM” value is -8.38%.

For `COc1ccc(C(=O)Nc2ccc(NC(C)=O)cc2)cc1OC`, the “% Inhibition @ 10 uM” value is -2.85%.
